Results published in PubChem BioAssay AID504706 (National Center for Advancing Translational Sciences (NCATS), 2011).
Screen size: about 320,000 compounds; about 200 (0.062%) were called active. The shares of active, inactive and inconclusive entries below differ from those in the screen. Calls follow the shape of the dose curve; as a rule, active = well fitted activation curve with a large enough effect; inconclusive = small, poorly fitted or top-dose-only effect; inactive = no such curve, though single readings can be large or run the other way. No potency is given beside an inconclusive call; the fits are too rough.

Test: qHTS assay for re-activators of p53 using a Luc reporter; also: nearly all actives have a fitted effect of over 45% in size
Settings: H1299 p53-A138V BP100-luciferase reporter, luminescence, 24 h; series mostly up to 92.2 µM
Procedure, shortened: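 H1299 (p53-null), stable ts p53-A138V + BP100-Luc; 1000 cells/well, Opti-MEM/10% FBS; cpd 4 pt, 1:5; 24 h, 37 deg C, 5% CO2; detection reagent 10 min RT; luminescence.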
Potency is read from the fitted curve at half-maximal effect; tags tell the direction and shape of the fitted curve.

Compound | Potency
CCn1c(C)cc(C(=O)COC(=O)c2cccnc2SC)c1C | inconclusive [activator, partial curve, poor fit]
Cn1c(NC(=O)CCc2ccccc2)cc(=O)n(C)c1=O | inconclusive [activator, partial curve, poor fit]
Cc1cc(C)nc(SCC(=O)Nc2ncc(Cc3cccc(Cl)c3)s2)n1 | inactive
CCCc1ccc2c(N)c(C#N)sc2n1 | inconclusive [activator, single point]
COCCN(CCOC)S(=O)(=O)c1ccc(C(=O)Nc2sc3c(c2C(N)=O)CCCCC3)cc1 | inconclusive [activator, full curve, poor fit]
CCCNC(=O)[C@H](Cc1c[nH]c2ccccc12)NC(=O)c1ccccc1Cl | inconclusive [activator, full curve, poor fit]
O=C(O)CCC(=O)Nc1ccccc1C(=O)NCCc1ccccc1 | inconclusive [activator, partial curve, poor fit]
COc1ccc(C(C#N)=C2C=CC(=NO)C=C2)cc1 | inconclusive [activator, single point]
Cc1ccc(N=Cc2sc(O)c3ccccc23)cc1 | inconclusive [activator, full curve, poor fit]
O=C1[C@@H]2[C@H]3CC[C@H](C3)[C@@H]2C(=O)N1O | inactive
O=C(NC1CCCCC1)c1cc(-c2cccs2)on1 | inconclusive [activator, full curve]
Cc1ccc(N=Cc2c(O)n(-c3cc(Cl)ccc3N3CCOCC3)c(=O)c3ccccc23)cc1C | inactive
COc1ccc2sc(NC(=O)c3ccco3)nc2c1 | inconclusive [activator, partial curve, poor fit]
C/C(N)=C(\C#N)C(=O)NCc1ccccn1 | inconclusive [activator, single point]
S=C(Nc1ccc(Cl)cc1)c1nc2ccccc2[nH]1 | inconclusive [activator, full curve, poor fit]
Cc1nc2cc(NCc3cccs3)ccc2n1C | inconclusive [activator, partial curve, poor fit]
COc1ccc(C2N(c3ccc(Cl)cc3)C(=O)C3CCCN32)cc1 (stereo unspecified) | inconclusive [activator, partial curve, poor fit]
Cc1ccn2c(CNCc3cnn(C)c3)c(C(=O)N3CCCCCC3)nc2c1 | inactive
Cc1cc(C)nc(SCc2csc(-c3ccccc3)n2)n1 | inconclusive [activator, full curve, poor fit]
CC1CC(C)CN(C(=O)CNC(=O)c2sc3ccccc3c2Cl)C1 (stereo unspecified) | inactive
O=c1/c(=C\c2ccc3c(c2)OCO3)sc2n1CCCN=2 | inactive
CC(C)(C)c1ccc(OCC(O)CSc2ncn[nH]2)cc1 (stereo unspecified) | inactive
COc1ccc(OC)c(CN2CCC(N3CCC(C(=O)NC4CC4)CC3)CC2)c1 | inconclusive [activator, partial curve, poor fit]

Compound | Potency
O=C(c1ccc(=O)oc1)N1CCCc2ccccc21 | inconclusive [activator, partial curve, poor fit]
CCOC(=O)c1c(NC(=O)c2nn(CC)cc2Br)sc2c1CCCCC2 | inactive
COc1ccc2c(c1)CC/C2=N\OC(=O)c1ccccc1C | inconclusive [activator, partial curve, poor fit]
COc1ccc(-c2ncc3ccccn23)cc1OC | inconclusive [activator, single point]
COc1ccc(-c2nc(-c3ccc(NC(=O)c4ccc(Br)o4)cc3)no2)cc1OC | inconclusive [activator, partial curve, poor fit]
Cc1ccc(C(=O)Sc2cccccc2=O)cc1 | inconclusive [activator, full curve, poor fit]
CCOc1ccccc1N1CCN(CC(=O)NC(C)c2ccccc2)CC1 (stereo unspecified) | inconclusive [activator, single point]
Cc1nc2ccc(NS(=O)(=O)c3ccc(F)c(C)c3)cc2[nH]1 | inactive
CCN(CC)c1ccc2cc(-c3nnc(-c4ccncc4)o3)c(=O)oc2c1 | inconclusive [activator, full curve, poor fit]
Cc1ccc2c(c1)Sc1c(ccc3ccccc13)N2 | inconclusive [activator, full curve, poor fit]
Cc1ccc(C)c(NC(=O)c2cc(-c3ccccc3O)n[nH]2)c1 | inactive
O=C(Nc1ncccc1Cl)C1COc2ccccc2O1 (stereo unspecified) | inconclusive [activator, partial curve, poor fit]
Cc1nnc(N2C(=O)C(O)=C(C(=O)c3ccco3)C2c2ccc(F)cc2)s1 (stereo unspecified) | inactive
O=C(Cc1ccccc1F)Nc1ccc(SC(F)F)cc1 | inconclusive [activator, partial curve, poor fit]
O=C(CSc1nc(O)c(Cc2ccccc2F)c(=O)[nH]1)N1CCCCCC1 | inconclusive [activator, full curve, poor fit]
O=C(CCN1C(=O)C2CC=CCC2C1=O)Nc1cccc(Cl)c1 (stereo unspecified) | inactive
O=C(Cc1nnc(NC(=O)Nc2ccc(Cl)cc2)s1)NCc1ccccc1 | inactive
O=C(NNC(=O)c1ccc2ccccc2c1O)c1cccs1 | inactive
O=C(Nc1nc(-c2ccco2)c(-c2ccco2)s1)c1ccc(F)cc1F | inconclusive [activator, partial curve, poor fit]
CCCCNC(=S)NNC(=O)c1sccc1C | inactive
CC(C)(C)c1ccc(S(=O)(=O)CCc2ccccn2)cc1 | inconclusive [activator, full curve, poor fit]
COCCn1c(=O)[nH]c2cc(C(=O)NCC3CCCO3)ccc2c1=O (stereo unspecified) | inactive
S=C(NCc1ccccc1)Nc1cccc2cnccc12 | inactive
